Test results as given in PubChem BioAssay AID1466 (National Center for Advancing Translational Sciences (NCATS), 2008).
Out of some 200,000 compounds screened, about 10 (0.005%) were called active. Inconclusive results, whose numbers are uncertain, are shown with a selection of clear calls. The call rests on the fitted dose curve; in most records, active means well fitted inhibition curve with a large enough effect; inconclusive means small, poorly fitted or top-dose-only effect, or effect the other way, or another doubt; inactive means no such curve, though single readings can be large or run the other way. Potencies of inconclusive entries are doubtful fits and often do not repeat.

Target: Lysosomal alpha-glucosidase (Homo sapiens) (UniProt P10253)
Test: qHTS Assay for Inhibitors of Human alpha-Glucosidase as a Potential Chaperone Treatment of Pompe Disease;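 on activity change, negative = inhibition: plate controls were uninhibited enzyme wells for no effect and no-enzyme background for full effect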
Conditions: purified human GAA, 4-MU-alpha-glucoside fluorescence; activity change, negative = inhibition: at 76.9 µM (top of the series) unless noted
How it was run: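 Human enzyme at 4 nM with 400 uM 4-methylumbelliferyl-alpha-D-pyranoside, citrate/phosphate buffer pH 5.0, 0.005% Tween-20, 20 min at room temperature. Compounds up to 77 uM. 4-MU fluorescence (Ex 365/Em 440) read after NaOH/glycine stop; AC50 from Hill fit.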
Potency means the concentration at half of the fitted maximal effect; tags describe the fitted curve by direction and shape.

Potency, inactive:
Nc1cc(S(=O)(=O)Nc2ccccc2Cl)ccc1N1CCOCC1
O=C1c2cccc3cccc(c23)C(=O)N1CC1CCN(CC(O)COc2ccc3ccccc3c2)CC1 (stereo unspecified)
CC(C)c1cc(NC(=O)C(C)(C)C)cc(C(C)C)c1O
COc1ccc(-c2ccc(SC)nn2)cc1
N#Cc1cc(-c2ccccc2)oc1/N=C/c1ccccc1O
Cn1c(=O)c2cc(S(=O)(=O)Nc3cccc(F)c3)ccc2n(C)c1=O
COC(=O)c1ccccc1NS(=O)(=O)c1ccc(Cl)nc1

Potency, inconclusive:
CCOCCCNC(=O)CN1C(=O)CSc2cc(S(=O)(=O)N3CCCCCC3)ccc21 56.2 µM [inhibitor, single point]
CC(=O)Nc1ccc(S(=O)(=O)N2CCN(C(=O)Cc3ccccc3)CC2)cc1 44.7 µM [inhibitor, partial curve]
Cc1c(Cl)ccc2c1NC(=O)[C@]21[C@@H]2C(=O)N(Cc3ccccc3)C(=O)[C@@H]2[C@@H]2CCCN21 1.26 µM [inhibitor, partial curve, poor fit]
COc1ccc(/C=N/NC(=O)CNC(=O)c2ccc(S(=O)(=O)N3CCOCC3)cc2)cc1OC 28.2 µM [inhibitor, single point]
CCOc1ccc2nc(Nc3nc4ccc(NC(C)=O)cc4s3)sc2c1 31.6 µM [activator, partial curve]
CCCCNc1c([N+](=O)[O-])cc(C(=O)O)cc1[N+](=O)[O-] 12.6 µM [inhibitor, single point]
Cc1nc(N2CCN(c3ccccn3)CC2)c2c(C)c(C(=O)Nc3ccccc3F)sc2n1 50.1 µM [activator, single point]
CCOCC(=O)Nc1nnc(SCCOC)s1 56.2 µM [inhibitor, single point]
CCOc1cc(C2C3=C(CCCC3=O)N(CCC(=O)O)C3=C2C(=O)CCC3)ccc1OS(=O)(=O)c1ccc(C)cc1 35.5 µM [activator, partial curve]
CC(O)CNCCCOc1cccc(C(F)(F)F)c1 (stereo unspecified) 44.7 µM [inhibitor, single point]
O=c1ccnc(SCn2nnc3ccccc3c2=O)[nH]1 50.1 µM [inhibitor, single point]
COC(=O)c1ccc2c(=O)n(CC3CCCO3)c(SCC(=O)Nc3ccccc3OC)nc2c1 (stereo unspecified) 31.6 µM [inhibitor, single point]
O=C(c1ccccc1)c1ccc(OCCn2cnc3ccccc3c2=O)cc1 11.2 µM [inhibitor, single point]
COc1cc(O)oc1C=Nc1ccc(Oc2ccccc2)cc1 25.1 µM [inhibitor, partial curve]
CN(C)/C=C/c1c(C#N)c(=O)ncn1Cc1ccccc1 56.2 µM [inhibitor, single point]
Cc1ccccc1NC(=O)/C(C#N)=C\c1cn(CC(=O)O)c2ccccc12 1.26 µM [inhibitor, full curve, poor fit]
CC(=O)c1ccc(-c2nc3ccccc3n2C)o1 31.6 µM [activator, partial curve]
O=C(OC(C(=O)Nc1ccc(Cl)cc1C(F)(F)F)c1ccccc1)C1=COCCO1 (stereo unspecified) 44.7 µM [inhibitor, partial curve, poor fit]
CCOC(=O)N1CCN(c2cc3[nH]c(=S)[nH]c3cc2F)CC1 50.1 µM [inhibitor, single point]
COc1ccc(NC(=O)c2ccc(CNS(=O)(=O)c3cccc(OC)c3)cc2)cc1 2.24 µM [inhibitor, partial curve]
Cc1cc(Cl)cc(Br)c1OCCCCn1cncn1 5.01 µM [inhibitor, single point]
COc1ccccc1NC(=O)CSc1nnc(Cn2nnc(-c3ccccc3)n2)n1-c1ccccc1 0.178 µM [inhibitor, full curve, poor fit]
CCOC(=O)C(=O)Nc1ccccc1C#N 12.6 µM [inhibitor, single point]
COc1ccc(OC)c(N/C=C/C(=C(C#N)C#N)N(C)C)c1 3.16 µM [inhibitor, full curve]
O=C(NCC1CCCO1)C1CCC(N2C(=O)c3ccccc3C2=O)CC1 (stereo unspecified) 3.16 µM [inhibitor, partial curve]
CCN1C=C(C(=O)OC)C(c2cccc(C)c2)C(C(=O)OC)=C1 35.5 µM [activator, partial curve]
Cc1ccc2c(c1)c1c3n2CCN=C3CCC1 31.6 µM [inhibitor, partial curve, poor fit]
CCCCC(CC)Cn1c(N)c(C#N)c2nc3ccccc3nc21 (stereo unspecified) 22.4 µM [activator, partial curve]
CCOC(=O)COc1ccc2c(c1)C(=O)CC(C)(C)O2 35.5 µM [activator, single point]
Cc1cc(C(=O)CCl)c(C)n1Cc1ccco1 50.1 µM [inhibitor, single point]
COc1ccc(-c2[nH]c(-c3ccc(C)cc3)nc2SCC(=O)Nc2nccs2)cc1 1.41 µM [inhibitor, full curve]
Oc1ccc2ccccc2c1CNc1cnc2ccccc2c1 28.2 µM [activator, partial curve]
COc1ccccc1CNC(=O)CNC(=O)Cn1cnc2ccccc2c1=O 3.55 µM [inhibitor, partial curve, poor fit]
CSc1nc(NCc2ccccc2)c2c3c(sc2n1)CN(C)CC3 35.5 µM [activator, single point]
O=C(CN1CCCCC1)N1CCN(C(=O)CN2CCCCC2)CC1 11.2 µM [inhibitor, single point]
O=C(/C=C/c1ccc(Cl)cc1)N1CCN(c2ncccn2)CC1 0.178 µM [inhibitor, full curve, poor fit]
Cc1cccnc1N(C(=O)Nc1ccccc1)C1=NCC(C)(C)S1 6.31 µM [inhibitor, single point]
C/C(=N\NS(=O)(=O)c1ccccc1)c1ccc2c(c1)OCO2 50.1 µM [inhibitor, single point]
CC(Oc1ccccc1F)C(=O)NN (stereo unspecified) 50.1 µM [inhibitor, single point]
COc1ccc2c(c1)C1=NN(/C(C)=C/C(C)=O)C(c3ccc(F)cc3)C1CC2 (stereo unspecified) 31.6 µM [inhibitor, single point]
Nc1nc2nc(-c3cccs3)cc(C(F)(F)F)n2n1 28.2 µM [activator, partial curve]
Cc1cc(C(=O)CCC(=O)N2CCN(S(=O)(=O)c3cccs3)CC2)c(C)s1 56.2 µM [inhibitor, single point]
COc1ccccc1C(=O)OCC(=O)NC(=O)NCc1ccccc1 44.7 µM [inhibitor, single point]
CC(NC(=O)c1ccco1)c1cccc2ccccc12 (stereo unspecified) 4.47 µM [inhibitor, single point]
CC1CC(C)CN(Cc2nc(N)nc(Nc3ccc4ccccc4c3)n2)C1 (stereo unspecified) 31.6 µM [inhibitor, partial curve, poor fit]
Cc1[nH]nc2ncc(C(=O)c3cc(Cl)cc(Cl)c3O)cc12 7.08 µM [inhibitor, single point]

Activity change, negative = inhibition, inconclusive:
CCOc1ccc(C2C(C(=O)OC)=C(C)N=C3SCCC(=O)N32)cc1OCC (stereo unspecified) -16.3% [inhibitor]
O=C(NCc1ccc2c(c1)OCO2)C12CN(Cc3ccccc3)CC1C(c1cccc([N+](=O)[O-])c1)=NO2 (stereo unspecified) -17.6% [inhibitor]
COc1ccccc1N1CCN(c2ccc(Cl)nn2)CC1 10.1% [activator]
Nc1ccccc1C(=O)NCc1ccc(F)cc1 16.4% [activator]
COc1ccc2[nH]c(=O)c(CN(CCO)S(=O)(=O)c3ccc(C)cc3)cc2c1 17.8% [activator]
O=C1c2ccccc2NC2(CCCC2)N1N=C1CCCC1 19.6% [activator]
Cc1ccc(S(=O)(=O)N2CCN(Cc3ccccc3)CC2)c(C)c1N(C)S(=O)(=O)c1ccccc1 -15.5% [inhibitor]
Cc1c(CN2CCCCC2)c(O)n(CCO)c(=O)c1C#N 17.3% [activator]
O=C(CSc1nc2c(sc3ccccc32)c(=O)n1CCc1ccccc1)NCc1ccco1 16.1% [activator]
CCOc1ccc2[nH]c(=O)c(CN(CC3COCCO3)C(=O)c3ccc(C)cc3)cc2c1 (stereo unspecified) 19.2% [activator]
OC[C@@H](O)C1OC2NC(=S)OC2C1O (stereo partly specified) 5.44% [activator]
O=S(=O)(Cc1ccccc1)NCC1CCCN(Cc2cccc3nonc23)C1 (stereo unspecified) 10.3% [activator]
Cc1ccc(C(=O)Nc2ccc3nccnc3c2)cc1 25.8% [activator]
